# Results taken from the supplement of paper PMC8728848.
# This is one part of the list.
# Assays:
# Experiment in all cases: glycan array binding signal (z-score within array); higher = stronger binding
# Conditions in all cases: glycan notation: IUPAC condensed, linker removed; mutation: R349A
# Fuc(a1-2)Gal = biological target: Fuc(a1-2)Gal
# In short: (§1)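 Negative Z-scores can be read as non-binding. The Z-score is calculated within each array and then averaged across arrays of one protein sequence at different concentrations or buffers and across linkers. Arrays, 3228 in all, were curated from the Consortium for Functional Glycomics database and kept only where the protein sequence was available.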
# Fuc(a1-2)Gal(b1-3)GalNAc = biological target: Fuc(a1-2)Gal(b1-3)GalNAc
# In short: as §1
# [1] = biological target: Fuc(a1-2)Gal(b1-3)GalNAc(b1-3)Gal
# In short: as §1
# [2] = biological target: Fuc(a1-2)Gal(b1-3)GalNAc(b1-3)Gal(a1-4)Gal(b1-4)Glc
# In short: as §1
# [3] = biological target: Fuc(a1-2)Gal(b1-3)GalNAc(b1-4)[Neu5Ac(a2-3)]Gal(b1-4)Glc
# In short: as §1
# Fuc(a1-2)Gal(b1-3)GlcNAc = biological target: Fuc(a1-2)Gal(b1-3)GlcNAc
# In short: as §1
# [4] = biological target: Fuc(a1-2)Gal(b1-3)GlcNAc(b1-3)Gal(b1-4)Glc
# In short: as §1
# [5] = biological target: Fuc(a1-2)Gal(b1-3)[Fuc(a1-4)]GlcNAc
# In short: as §1
# Fuc(a1-2)Gal(b1-4)Glc = biological target: Fuc(a1-2)Gal(b1-4)Glc
# In short: as §1
# Fuc(a1-2)Gal(b1-4)Glc6S = biological target: Fuc(a1-2)Gal(b1-4)Glc6S
# In short: as §1
# Fuc(a1-2)Gal(b1-4)GlcNAc = biological target: Fuc(a1-2)Gal(b1-4)GlcNAc
# In short: as §1
# [6] = biological target: Fuc(a1-2)Gal(b1-4)GlcNAc(b1-3)Gal(b1-4)GlcNAc
# In short: as §1
# [7] = biological target: Fuc(a1-2)Gal(b1-4)GlcNAc(b1-3)Gal(b1-4)GlcNAc(b1-3)Gal(b1-4)GlcNAc
# In short: as §1
# [8] = biological target: Fuc(a1-2)Gal(b1-4)GlcNAc6S
# In short: as §1
# [9] = biological target: Fuc(a1-2)Gal(b1-4)[Fuc(a1-3)]GlcNAc
# In short: as §1
# [10] = biological target: Fuc(a1-2)Gal(b1-4)[Fuc(a1-3)]GlcNAc(b1-3)Gal(b1-4)[Fuc(a1-3)]GlcNAc
# In short: as §1
# [11] = biological target: Fuc(a1-2)Gal(b1-4)[Fuc(a1-3)]GlcNAc(b1-3)Gal(b1-4)[Fuc(a1-3)]GlcNAc(b1-3)Gal(b1-4)[Fuc(a1-3)]GlcNAc
# In short: as §1
# Fuc(a1-2)Gal6S(b1-4)Glc = biological target: Fuc(a1-2)Gal6S(b1-4)Glc
# In short: as §1
# [12] = biological target: Fuc(a1-2)Gal6S(b1-4)Glc6S
# In short: as §1
# [13] = biological target: Fuc(a1-2)Gal6S(b1-4)GlcNAc
# In short: as §1
# Fuc(a1-2)[Gal(a1-3)]Gal = biological target: Fuc(a1-2)[Gal(a1-3)]Gal
# In short: as §1
# [14] = biological target: Fuc(a1-2)[Gal(a1-3)]Gal(b1-3)GlcNAc
# In short: as §1
# [15] = biological target: Fuc(a1-2)[Gal(a1-3)]Gal(b1-4)Glc
# In short: as §1
# [16] = biological target: Fuc(a1-2)[Gal(a1-3)]Gal(b1-4)GlcNAc
# In short: as §1
# [17] = biological target: Fuc(a1-2)[Gal(a1-3)]Gal(b1-4)[Fuc(a1-3)]GlcNAc
# In short: as §1
# [18] = biological target: Fuc(a1-2)[Gal(a1-4)]Gal(b1-4)GlcNAc
# In short: as §1
# [19] = biological target: Fuc(a1-2)[GalNAc(a1-3)]Gal
# In short: as §1
# [20] = biological target: Fuc(a1-2)[GalNAc(a1-3)]Gal(b1-3)GlcNAc
# In short: as §1
# [21] = biological target: Fuc(a1-2)[GalNAc(a1-3)]Gal(b1-4)Glc
# In short: as §1
# [22] = biological target: Fuc(a1-2)[GalNAc(a1-3)]Gal(b1-4)GlcNAc
# In short: as §1
# [23] = biological target: Fuc(a1-2)[GalNAc(a1-3)]Gal(b1-4)[Fuc(a1-3)]GlcNAc
# In short: as §1
# [24] = biological target: Fuc(a1-2)[GalNAc(a1-4)]Gal(b1-4)GlcNAc
# In short: as §1
# [25] = biological target: Fuc(a1-2)[GalNAc(b1-3)]Gal
# In short: as §1
# Fuc(a1-3)GlcNAc = biological target: Fuc(a1-3)GlcNAc
# In short: as §1
# [26] = biological target: Fuc(a1-3)[Gal(b1-4)]Glc6S
# In short: as §1
# [27] = biological target: Fuc(a1-3)[Gal(b1-4)]GlcNAc
# In short: as §1
# [28] = biological target: Fuc(a1-3)[Gal(b1-4)]GlcNAc(b1-2)Man(a1-3)[Fuc(a1-3)[Gal(b1-4)]GlcNAc(b1-2)Man(a1-6)]Man(b1-4)GlcNAc(b1-4)GlcNAc
# In short: as §1
# [29] = biological target: Fuc(a1-3)[Gal(b1-4)]GlcNAc(b1-2)Man(a1-6)[Gal(b1-4)GlcNAc(b1-2)Man(a1-3)]Man(b1-4)GlcNAc(b1-4)GlcNAc
# In short: as §1
# [30] = biological target: Fuc(a1-3)[Gal(b1-4)]GlcNAc(b1-3)Gal(b1-3)[Fuc(a1-4)]GlcNAc
# In short: as §1
# [31] = biological target: Fuc(a1-3)[Gal(b1-4)]GlcNAc(b1-4)Gal(b1-4)[Fuc(a1-3)]GlcNAc
# In short: as §1
# [32] = biological target: Fuc(a1-3)[Gal(b1-4)]GlcNAc(b1-4)Gal(b1-4)[Fuc(a1-3)]GlcNAc(b1-4)Gal(b1-4)[Fuc(a1-3)]GlcNAc
# In short: as §1
# [33] = biological target: Fuc(a1-3)[Gal(b1-4)]GlcNAc6S
# In short: as §1
# [34] = biological target: Fuc(a1-3)[Gal3S(b1-4)]Glc6S
# In short: as §1
# [35] = biological target: Fuc(a1-3)[Gal3S(b1-4)]GlcNAc
# In short: as §1
# [36] = biological target: Fuc(a1-3)[Gal3S(b1-4)]GlcNAc6S
# In short: as §1
binder,measurement,setting,value
Surfactant Protein D (Human); Neck + Carbohydrate Recognition Domain (NCRD) (Homo sapiens) (protein) MLLFLLSALVLLTQPLGYLEAEMKTYSHRTMPSACTLVMCSSVESGLPGRDRDGREGPRGEKGDPGLPGAAGQAGMPGQAGPVGPKGDNGSVGEPGPKGDTGPSGPPGPPGVPGPAGREGALGKQGNIGPQGKPGPKGEAGPKGEVGAPGMQGSAGARGLAGPKGERGVPGERGVPGNTGAAGSAGAMGPQGSPGARGPPGLKGDKGIPGDKGAKGESGLPDVASLRQQVEALQGQVQHLQAAFSQYKKVELFPNGQSVGEKIFKTAQFVKPFTEAQLLCTQAGGQLASPRSAAENAALQQLVVAKNEAAFLSMTDSKTEGKFTYPTGESLVYSNWAPGEPNDDGGSEDCVEIFTNGKWNDRACGEKALVVCEF,glycan array binding signal (z-score),Fuc(a1-2)Gal,-0.757
same,glycan array binding signal (z-score),Fuc(a1-2)Gal(b1-3)GalNAc,-0.311
same,glycan array binding signal (z-score),[1],-0.63
same,glycan array binding signal (z-score),[2],-0.613
same,glycan array binding signal (z-score),[3],-0.586
same,glycan array binding signal (z-score),Fuc(a1-2)Gal(b1-3)GlcNAc,-0.93
same,glycan array binding signal (z-score),[4],-0.606
same,glycan array binding signal (z-score),[5],-0.721
same,glycan array binding signal (z-score),Fuc(a1-2)Gal(b1-4)Glc,-0.684
same,glycan array binding signal (z-score),Fuc(a1-2)Gal(b1-4)Glc6S,0.656
same,glycan array binding signal (z-score),Fuc(a1-2)Gal(b1-4)GlcNAc,-0.584
same,glycan array binding signal (z-score),[6],-0.301
same,glycan array binding signal (z-score),[7],0.167
same,glycan array binding signal (z-score),[8],2.04
same,glycan array binding signal (z-score),[9],-0.727
same,glycan array binding signal (z-score),[10],0.115
same,glycan array binding signal (z-score),[11],-0.073
same,glycan array binding signal (z-score),Fuc(a1-2)Gal6S(b1-4)Glc,1.18
same,glycan array binding signal (z-score),[12],2.94
same,glycan array binding signal (z-score),[13],1.28
same,glycan array binding signal (z-score),Fuc(a1-2)[Gal(a1-3)]Gal,-0.627
same,glycan array binding signal (z-score),[14],-0.887
same,glycan array binding signal (z-score),[15],-0.602
same,glycan array binding signal (z-score),[16],-0.659
same,glycan array binding signal (z-score),[17],-0.441
same,glycan array binding signal (z-score),[18],-0.199
same,glycan array binding signal (z-score),[19],-0.147
same,glycan array binding signal (z-score),[20],-0.27
same,glycan array binding signal (z-score),[21],-0.584
same,glycan array binding signal (z-score),[22],-0.545
same,glycan array binding signal (z-score),[23],-0.584
same,glycan array binding signal (z-score),[24],-0.485
same,glycan array binding signal (z-score),[25],-0.782
same,glycan array binding signal (z-score),Fuc(a1-3)GlcNAc,-0.606
same,glycan array binding signal (z-score),[26],1.04
same,glycan array binding signal (z-score),[27],-0.25
same,glycan array binding signal (z-score),[28],-0.494
same,glycan array binding signal (z-score),[29],-0.569
same,glycan array binding signal (z-score),[30],-0.667
same,glycan array binding signal (z-score),[31],-0.655
same,glycan array binding signal (z-score),[32],-0.636
same,glycan array binding signal (z-score),[33],1.97
same,glycan array binding signal (z-score),[34],1.93
same,glycan array binding signal (z-score),[35],0.887
same,glycan array binding signal (z-score),[36],2.55
